Source: PMC4336329 (PLoS ONE, 2015)
The whole screen tested about 310,000 compounds, of which about 14,000 (4.5%) showed an effect of 50% or more. Effects have a minus sign here. The list shows a part of the results.
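Further: peak tail current of the secondary pulse compared with the same well before compound.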

The compounds below were run against human ether-à-go-go-related gene (hERG) potassium channel (human, UniProt Q12809) (assay: primary screen, population patch clamp on CHO cells stably expressing hERG).
Chain of human ether-à-go-go-related gene (hERG) potassium channel (Q12809 whole entry, looked up): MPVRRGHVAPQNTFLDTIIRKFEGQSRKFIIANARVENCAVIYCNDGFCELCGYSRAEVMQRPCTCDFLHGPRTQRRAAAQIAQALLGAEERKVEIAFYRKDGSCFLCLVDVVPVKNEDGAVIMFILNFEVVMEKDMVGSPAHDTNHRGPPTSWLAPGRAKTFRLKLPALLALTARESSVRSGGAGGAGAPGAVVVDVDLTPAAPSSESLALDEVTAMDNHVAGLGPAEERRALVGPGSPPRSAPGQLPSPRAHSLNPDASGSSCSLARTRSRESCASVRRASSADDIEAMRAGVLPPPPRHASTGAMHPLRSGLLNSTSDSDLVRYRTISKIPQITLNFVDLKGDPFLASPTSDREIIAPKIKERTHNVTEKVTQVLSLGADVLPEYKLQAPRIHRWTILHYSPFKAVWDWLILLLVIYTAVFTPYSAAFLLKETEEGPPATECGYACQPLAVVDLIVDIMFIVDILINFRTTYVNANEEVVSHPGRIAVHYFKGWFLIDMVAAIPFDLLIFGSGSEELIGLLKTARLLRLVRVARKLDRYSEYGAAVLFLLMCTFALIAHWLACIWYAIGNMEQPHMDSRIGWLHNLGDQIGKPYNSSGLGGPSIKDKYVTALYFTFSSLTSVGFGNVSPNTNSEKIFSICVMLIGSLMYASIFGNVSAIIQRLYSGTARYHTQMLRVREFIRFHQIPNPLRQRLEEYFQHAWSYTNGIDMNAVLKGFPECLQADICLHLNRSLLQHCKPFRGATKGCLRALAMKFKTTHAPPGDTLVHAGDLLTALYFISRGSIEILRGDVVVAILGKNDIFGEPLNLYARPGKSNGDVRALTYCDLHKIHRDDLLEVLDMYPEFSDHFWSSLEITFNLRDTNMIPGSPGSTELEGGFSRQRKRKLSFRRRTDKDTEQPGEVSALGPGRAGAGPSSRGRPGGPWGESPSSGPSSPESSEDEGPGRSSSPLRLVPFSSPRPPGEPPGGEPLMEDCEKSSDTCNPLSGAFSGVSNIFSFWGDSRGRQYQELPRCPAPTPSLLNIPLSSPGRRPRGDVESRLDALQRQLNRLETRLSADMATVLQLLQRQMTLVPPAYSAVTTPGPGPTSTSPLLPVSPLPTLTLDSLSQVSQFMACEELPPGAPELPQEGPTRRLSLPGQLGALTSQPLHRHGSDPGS
For CCOC(=O)/C(C#N)=C1/SC(CC)C(=O)N1c1ccc(Br)cc1 (stereo not drawn), the “hERG current change (%, negative = inhibition) at 10uM” value was -31.5%. COc1ccc(NC(=O)CSCC(=O)Nc2cccc(S(=O)(=O)N3CCCCCC3)c2)cc1 was tested, and the “hERG current change (%, negative = inhibition) at 10uM” value was -25.6%. COc1cccc(N2CC(O)Cn3c2nc2c3c(=O)n(CCCc3ccccc3)c(=O)n2C)c1 (stereo not drawn) was tested, and the “hERG current change (%, negative = inhibition) at 10uM” value was -13.3%. In the case of Nc1ccc(C(=O)c2cccs2)cn1, the “hERG current change (%, negative = inhibition) at 10uM” value is reported as 16.1%. With COc1ccccc1-n1c(O)c(/C=N/NC(=S)Nc2ccccc2)c(=O)[nH]c1=S the “hERG current change (%, negative = inhibition) at 10uM” value was 14.8%. In the case of COC(=O)Cc1coc2cc(OC)ccc12, the “hERG current change (%, negative = inhibition) at 10uM” value is reported as 11.9%. In the case of CN(C)c1ccc(/C=N/NC(=O)COc2ccccc2)cc1, the “hERG current change (%, negative = inhibition) at 10uM” value is reported as -20.9%. Cc1cc(C)cc(NC(=S)Nc2ccc3cn[nH]c3c2)c1 was tested, and the “hERG current change (%, negative = inhibition) at 10uM” value was -6.1%. COc1cc(/C=C2\SC(=Nc3ccccc3)N(CCc3c[nH]c4ccccc34)C2=O)ccc1OC(C)C(=O)O (stereo not drawn) was tested, and the “hERG current change (%, negative = inhibition) at 10uM” value was 23.1%. CCCCC#Cc1ccc(C(=O)NNC(=O)Nc2cc(Cl)cc(Cl)c2)o1 was tested, and the “hERG current change (%, negative = inhibition) at 10uM” value was 12.7%. CCOc1ccc(NC(=O)/C(=C\c2ccc(OC(C)=O)c(OC)c2)NC(C)=O)cc1 was tested, and the “hERG current change (%, negative = inhibition) at 10uM” value was 11.8%. O=C(N/N=C/c1ccco1)C(O)C(O)C(=O)N/N=C/c1ccco1 (stereo not drawn) was tested, and the “hERG current change (%, negative = inhibition) at 10uM” value was 18.3%. With O=C(CN1C(=O)CCS(=O)(=O)c2ccccc21)Nc1cccc(Cl)c1 the “hERG current change (%, negative = inhibition) at 10uM” value was -11.3%. For CC(C)(C)c1ccc(OCc2ccc(C(=O)N3CCOCC3)o2)cc1, the “hERG current change (%, negative = inhibition) at 10uM” value was -37.1%. Cc1c(C(=O)NC2CCOC2)oc2c(F)cccc12 (stereo not drawn) was tested, and the “hERG current change (%, negative = inhibition) at 10uM” value was 30.1%. In the case of CCCN(CCC)Cc1c(C(=O)N/N=C/c2ccncc2)nnn1-c1nonc1N, the “hERG current change (%, negative = inhibition) at 10uM” value is reported as -64.1%. With Cc1c(CN(C)C(=O)c2ccc(Br)o2)cnn1C the “hERG current change (%, negative = inhibition) at 10uM” value was -7.89%. In the case of COc1ccc(S(=O)(=O)N2CC(=O)Nc3ccccc32)cc1F, the “hERG current change (%, negative = inhibition) at 10uM” value is reported as 18.2%. Cc1ccccc1-n1c(O)c(/C=N/N2CCOCC2)c(=O)[nH]c1=S was tested, and the “hERG current change (%, negative = inhibition) at 10uM” value was 7.14%. For Cc1ccc2nc(NC(=O)C3CCN(S(=O)(=O)c4cccnc4)CC3)sc2c1, the “hERG current change (%, negative = inhibition) at 10uM” value was -44.1%. With CCOc1cnc(-c2c(-c3c(F)cccc3Cl)noc2C)o1 the “hERG current change (%, negative = inhibition) at 10uM” value was -13.2%. COC(=O)c1cc(NS(=O)(=O)c2ccc(OC)c(OC)c2)ccc1Cl was tested, and the “hERG current change (%, negative = inhibition) at 10uM” value was -18.4%. In the case of CCC(C)[C@H](NC(=O)[C@@H]1CSC2c3ccccc3C(=O)N21)C(=O)NCc1ccco1 (stereo partly drawn), the “hERG current change (%, negative = inhibition) at 10uM” value is reported as 9.18%. In the case of O=C(CN1C(=O)C2CC=C(Cl)CC2C1=O)Nc1ccc(C(=O)O)cc1 (stereo not drawn), the “hERG current change (%, negative = inhibition) at 10uM” value is reported as 3.39%. For Cc1onc(C(=O)NN)c1-c1csc(COc2ccccc2)n1, the “hERG current change (%, negative = inhibition) at 10uM” value was 1.54%. In the case of C/C(Cc1ccccc1)=N\NC(=O)CNC(=O)c1ccc(C(C)(C)C)cc1, the “hERG current change (%, negative = inhibition) at 10uM” value is reported as -6.48%. For COCc1cc(C)nc(SCC(=O)Nc2cccc3cccnc23)c1C#N, the “hERG current change (%, negative = inhibition) at 10uM” value was 10.1%. With COc1cccc(CN(C)C(=O)/C=C/c2ccc(S(=O)(=O)N3CCCCCC3)cc2)c1 the “hERG current change (%, negative = inhibition) at 10uM” value was -7.36%. In the case of CN(c1ccccc1)S(=O)(=O)c1ccc(NC(=O)c2ccc(F)cc2)cc1, the “hERG current change (%, negative = inhibition) at 10uM” value is reported as -12.5%. With COc1cc(/C=C2\C(=O)NN(c3ccc(C)cc3)C2=O)cc([N+](=O)[O-])c1O the “hERG current change (%, negative = inhibition) at 10uM” value was 23.8%. In the case of O=C(Nc1ccc2c(c1)OCCO2)c1oc2ccccc2c1NC(=O)C1CC1, the “hERG current change (%, negative = inhibition) at 10uM” value is reported as 13.6%. In the case of O=C1CCN(Cc2nc(-c3ccc(Cl)cc3)no2)CCN1, the “hERG current change (%, negative = inhibition) at 10uM” value is reported as -14.4%. Cc1ccc(S(=O)(=O)NC(CC(C)C)C(=O)N2CCCC2)cc1 (stereo not drawn) was tested, and the “hERG current change (%, negative = inhibition) at 10uM” value was 1.5%. With Cc1ccc(NCC(=O)N/N=C/c2cccc(Oc3ccccc3)c2)cc1 the “hERG current change (%, negative = inhibition) at 10uM” value was 0.288%. FC(F)(F)c1cccc(CNC2c3ccccc3-c3ccccc32)c1.O=C(O)C(=O)O was tested, and the “hERG current change (%, negative = inhibition) at 10uM” value was 20.4%. Cc1c(C(=O)N/N=C/c2ccc(-c3ccccc3[N+](=O)[O-])o2)sc(N)c1C#N was tested, and the “hERG current change (%, negative = inhibition) at 10uM” value was 12.1%. In the case of COc1ccc(/C=C(\C#N)C(=O)OCC(=O)NC(C)c2ccccc2)cc1 (stereo not drawn), the “hERG current change (%, negative = inhibition) at 10uM” value is reported as -0.608%. Cc1csc(NC(=O)Cc2coc3cc(C)c(C(C)C)cc23)n1 was tested, and the “hERG current change (%, negative = inhibition) at 10uM” value was 7.87%. For CCN(CC)S(=O)(=O)c1ccc2c(c1)nc(SCc1nc3ccsc3c(=O)[nH]1)n2CC, the “hERG current change (%, negative = inhibition) at 10uM” value was -30.8%. CSc1nc2c(c(=O)[nH]c(=O)n2C)n1C/C=C(\C)Cl was tested, and the “hERG current change (%, negative = inhibition) at 10uM” value was -27.5%. With COCCNC(=O)c1cccc(OC2CCN(Cc3ccc(C(=O)OC)cc3)CC2)c1 the “hERG current change (%, negative = inhibition) at 10uM” value was -40.5%. In the case of CC1CCCC(C)N1C(=O)CSc1nc(N)cc(N)n1 (stereo not drawn), the “hERG current change (%, negative = inhibition) at 10uM” value is reported as -0.387%. With O=P(Cc1ccccc1)(c1ccccc1)c1ccccc1 the “hERG current change (%, negative = inhibition) at 10uM” value was 6.03%. With CCCc1cc(NCCCn2ccnc2)n2nc(C)c(-c3ccccc3)c2n1 the “hERG current change (%, negative = inhibition) at 10uM” value was -74.9%. N#Cc1cc(S(=O)(=O)N2CCOCC2)ccc1N1CCOCC1 was tested, and the “hERG current change (%, negative = inhibition) at 10uM” value was -7.53%. With CN(C)S(=O)(=O)c1cccc(NC(=O)c2ccc(COc3ccccc3)cc2)c1 the “hERG current change (%, negative = inhibition) at 10uM” value was 1.32%. In the case of CCc1cccc(NC(=O)C2CCN(S(=O)(=O)c3ccc4c(c3)NC(=O)CO4)CC2)c1, the “hERG current change (%, negative = inhibition) at 10uM” value is reported as -28%. With Cc1nn(S(=O)(=O)c2ccccc2)c(C)c1S(=O)(=O)N1CCC(C)CC1 the “hERG current change (%, negative = inhibition) at 10uM” value was 14.5%. CC1CCN(c2oc(-c3ccccc3Cl)nc2C#N)CC1 was tested, and the “hERG current change (%, negative = inhibition) at 10uM” value was 16.6%. In the case of O=S(=O)(Nc1nnc(-c2ccccc2)s1)c1ccc(Cl)cc1, the “hERG current change (%, negative = inhibition) at 10uM” value is reported as 0.769%. In the case of COc1cccc(/C=N/NC(=O)CC(=O)NCCc2ccccc2)c1OC, the “hERG current change (%, negative = inhibition) at 10uM” value is reported as 6.02%. In the case of CC12CCC(C(=O)Nc3nc4ccccc4s3)(OC1=O)C2(C)C (stereo not drawn), the “hERG current change (%, negative = inhibition) at 10uM” value is reported as 2.26%. With Cc1c(NC(=S)N/N=C/c2ccc([N+](=O)[O-])cc2O)c(=O)n(-c2ccccc2)n1C the “hERG current change (%, negative = inhibition) at 10uM” value was -1.93%. In the case of Cc1csc(NC(=O)CSc2nnc(Cn3c(=O)sc4ccccc43)n2-c2ccccc2)n1, the “hERG current change (%, negative = inhibition) at 10uM” value is reported as -9.94%.
